Over roughly 33,000 sequences, “E-score (-0.5 to 0.5)” has its median near -0.035; the highest 2% begin near 0.34. The list shows a part of the results.
biological target: T1, Mot3 (UniProt P54785); test: PBM E-score (8-mer binding enrichment) (E-score (-0.5 to 0.5)); higher = stronger / more preferred TF binding; most listed sequences are background and not binding sites; details: protein concentration: 200 nM; construct: GST-full length
T1 sequence: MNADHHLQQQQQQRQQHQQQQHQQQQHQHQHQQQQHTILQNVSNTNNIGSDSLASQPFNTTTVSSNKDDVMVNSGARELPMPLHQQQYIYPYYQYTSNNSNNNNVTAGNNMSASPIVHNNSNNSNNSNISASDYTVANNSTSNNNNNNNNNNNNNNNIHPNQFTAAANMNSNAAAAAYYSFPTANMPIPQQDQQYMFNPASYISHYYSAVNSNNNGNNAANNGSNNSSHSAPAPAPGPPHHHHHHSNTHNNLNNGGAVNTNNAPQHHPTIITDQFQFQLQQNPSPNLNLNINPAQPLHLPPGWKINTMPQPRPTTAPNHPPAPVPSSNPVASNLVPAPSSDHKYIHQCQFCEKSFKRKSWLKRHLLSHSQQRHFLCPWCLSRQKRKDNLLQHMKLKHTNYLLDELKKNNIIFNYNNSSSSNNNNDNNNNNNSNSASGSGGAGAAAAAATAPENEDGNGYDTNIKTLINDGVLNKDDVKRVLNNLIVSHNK
How it was run: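 GST-tagged yeast TFs (full-length or DNA-binding domain) were made by PURExpress in vitro transcription/translation and applied at about 100-200 nM to universal all-10-mer Agilent arrays. The arrays were made double-stranded by primer extension, on fresh or once-stripped slides. Bound protein was detected with fluorescent anti-GST, and scans were normalised with masliner. Each ungapped eight-base word, pooled with its reverse complement, received an E-score (modified Wilcoxon-Mann-Whitney statistic) from the Universal PBM Analysis Suite.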

| Sequence | PBM E-score |
| --- | --- |
| GCACCTAA | 0.103 |
| CACGATGG | -0.136 |
| TGACATAA | 0.338 |
| AAGGTAAA | 0.334 |
| CGCGTCGC | 0.00338 |
| ACCATTAT | -0.0343 |
| AACAATCT | 0.194 |
| ACCGCAGG | 0.0707 |
| AACATAGA | 0.2 |
| CATGTGAC | 0.148 |
| AACTTCTT | 0.0946 |
| GGACTAGA | -0.12 |
| ACGCGAAT | 0.251 |
| TAAACGAA | 0.24 |
| AGATGACC | -0.0369 |
| ATGAAGGC | 0.325 |
| CTTAACCA | 0.19 |
| ACATGTAT | 0.357 |
| CGCCCTCA | -0.242 |
| CGCAAGCA | -0.0514 |
| CAAGGCAA | 0.479 |
| GGTACGTA | 0.194 |
| ACCCAAAA | -0.0205 |
| AGCAGACT | 0.00168 |
| ACCCGGCG | -0.283 |

| Sequence | PBM E-score |
| --- | --- |
| TATATACA | 0.316 |
| AGGGCGAT | -0.203 |
| CCATATCC | -0.163 |
| CGTGCGAA | -0.0188 |
| GCCTTCGC | 0.132 |
| GACAAGGC | 0.111 |
| ACGGGAAA | 0.0602 |
| ACAGGCTG | 0.0165 |
| GCTCGAGC | -0.0827 |
| AATAACTG | 0.0261 |
| ACATACGT | 0.127 |
| CACACCCC | 0.0557 |
| CTATTTCC | 0.267 |
| CAGACTGA | -0.132 |
| GAATTTAC | 0.134 |
| ACAATGAC | 0.0513 |
| CGCCTGAA | 0.297 |
| AGGGGGTG | -0.226 |
| ATAGGTCA | 0.108 |
| CGACTTGA | -0.157 |
| GGCTACAA | -0.0512 |
| ACGAATGA | 0.141 |
| ACGACGTG | 0.187 |
| CACACTAG | -0.0999 |
| TGACAGCA | 0.0695 |

| Sequence | PBM E-score |
| --- | --- |
| CAGCGGCA | -0.165 |
| GCGTATCA | 0.0645 |
| AAGTCCAC | -0.187 |
| ACTGAGCG | -0.112 |
| GGCGTGAA | -0.0959 |
| CCACTGTA | -0.0867 |
| AATCGGAC | -0.167 |
| CTAGCCTC | -0.273 |
| GAATTGAA | 0.0526 |
| ACCAGTGA | -0.0292 |
| AGGACATC | -0.107 |
| CAGGCGAG | -0.0443 |
| TACTTACA | 0.245 |
| TAATGAAA | 0.0802 |
| ATGGTGGG | -0.235 |
| CGCGCAGA | -0.159 |
| ATGGAGCA | -0.0566 |
| GCCCTACC | -0.00913 |
| CCGCCGTC | -0.195 |
| GCCTACCC | 0.199 |
| ATCGGAAA | 0.0192 |
| GTTCAAGA | -0.19 |
| GCGGCATA | 0.073 |
| AACTCCTC | -0.153 |
| AACGTGCT | 0.141 |

| Sequence | PBM E-score |
| --- | --- |
| AAATAATA | 0.218 |
| GCACCCGA | -0.232 |
| AGACTTAT | 0.0426 |
| CAGTTATG | -0.0206 |
| AGGCGTCG | 0.103 |
| CCCCGCCA | -0.205 |
| AGTATGCG | -0.088 |
| AGCAGGGG | -0.297 |
| ATGGTGCC | 0.237 |
| CGGCAGAC | -0.337 |
| ACCAACGG | -0.137 |
| AGCGGTTG | -0.0957 |
| TCGTGAAA | -0.125 |
| TAAATACA | 0.366 |
| GTGACAAA | 0.0421 |
| GGACCCGA | -0.265 |
| AACCTTAG | 0.0134 |
| AACTCTCG | -0.0358 |
| GGACTTTA | -0.121 |
| TGTGCTAA | 0.171 |
| GCACTAAC | -0.0489 |
| GAAAGGGA | 0.0421 |
| AGCGGCTG | -0.274 |
| CACAGTCC | -0.0652 |
| AATTCAGC | -0.108 |

| Sequence | PBM E-score |
| --- | --- |
| ATCCTGGC | -0.117 |
| AATTTTGT | 0.122 |
| AGCACGAC | -0.0207 |
| CTGTGCTC | 0.0292 |
| GAACTCAA | -0.111 |
| GACGAGAC | 0.147 |
| CGCTCTAA | -0.131 |
| AATGTCAT | 0.0778 |
| AAAAGACT | -0.126 |
| TATGTTAA | 0.396 |
| GGCCCTGA | -0.231 |
| CGCGACTA | 0.141 |
| CAGCCGGG | -0.136 |
| GTGACGGA | -0.0999 |
| ATACAGCA | 0.135 |
| TACTTGGA | 0.177 |
| CAAGGAAA | 0.317 |
| GGTGAAGA | -0.16 |
| ACTAGCGG | -0.0418 |
| ATCGGACG | -0.172 |
| ATGCTCCC | -0.214 |
| GTTTTCCA | 0.144 |
| TAGAGTCA | 0.0332 |
| ATTAGTTC | -0.0245 |
| ACCTTTCC | 0.0757 |

| Sequence | PBM E-score |
| --- | --- |
| CCCACTCG | -0.185 |
| CGAGGGGC | -0.254 |
| CATATATG | 0.152 |
| CGCAGGAC | -0.0456 |
| CAAACTCA | 0.145 |
| ACCGTCAG | -0.337 |
| CGCCAATC | -0.166 |
| TAGGCTGA | -0.144 |
| TAGGGCCA | -0.299 |
| AAAAGTTG | 0.0843 |
| AATCTAGT | -0.024 |
| AGGGGGAA | -0.17 |
| TCAGAAAA | -0.0532 |
| CCCCTCTA | -0.0583 |
| CCTGCTGA | 0.231 |
| AAGGTCAC | 0.0545 |
| AACTACAG | 0.108 |
| GAGCAAGC | -0.221 |
| ACTTCTTC | 0.0443 |
| AGCGGGCC | -0.18 |
| CGCCCTCC | -0.296 |
| GCCAGGGC | -0.165 |
| AAGGACTA | -0.00807 |
| CTCTGCCC | -0.025 |
| TACGGTGA | 0.0714 |

| Sequence | PBM E-score |
| --- | --- |
| CACCAGGA | -0.104 |
| CTCAGCAG | -0.113 |
| CGTTCACA | 0.123 |
| CCGAACAA | 0.0981 |
| AAGGTTGA | 0.0788 |
| CGGATGAC | -0.066 |
| CTCTGAAC | -0.171 |
| ATTCAGGG | -0.0077 |
| CGCATTGA | 0.0524 |
| GACCCTAA | -0.333 |
| GAGTTTAA | 0.052 |
| CGTATTAC | 0.294 |
| CGCTTGAC | 0.009 |
| ACAAATAA | 0.187 |
| CGCTGGGC | -0.171 |
| TACGCACA | 0.242 |
| CAGTCGGG | 0.0768 |
| CCACTCGC | -0.171 |
| ATGCAGGG | -0.153 |
| AAAGCTAA | 0.14 |
| GGACCTGA | -0.179 |
| AGGTCCGC | -0.307 |

From the supplement of paper PMC3334620
